Laboratory results: paper PMC12136788
This is one part of the list.

T1: UNK ZnF1-3 (human, UniProt Q9C0B0 31-174)
T1 sequence: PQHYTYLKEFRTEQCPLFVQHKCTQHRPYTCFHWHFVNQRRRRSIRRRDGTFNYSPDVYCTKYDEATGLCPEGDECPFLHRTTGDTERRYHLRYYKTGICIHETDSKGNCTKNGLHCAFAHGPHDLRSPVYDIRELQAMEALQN

B1: chr1:43168039:43168040:+_ENSMUSG00000010290_ENSMUST00000010434|mus_mus|motif|central (ssRNA)
RNA: GGGAGUUCUACAGUCCGACGAUCCUGUUGAGUGUCAUUAUUAUUGUGCUCCAUUUUAUGGUUCACAGGCAAAUUGGAAAACAACACGGGGGGUGAAAUCCUCGACGAGGAAUUUGGUGAUUUCCAGAAGGCAUCACUGGUGGACAACAGAGGAUUGAGCAUCA
B2: chr2:198351390:198351391:-_ENSG00000144381_ENST00000345042|hu_hu|hu_hu_hu_mus_False|48_48 (ssRNA)
RNA: GGGAGUUCUACAGUCCGACGAUCUCAUUCCCACCCUCCACAGAAAGGCUGCUUCUGAACUCUCAUGUGGUGACACAGCGCUACAGUCCUGAUUUUAACAGAACAGUAGAGAUGCCUCAGUGAUUUAAGUUGAAAGCAGGACACCAACAGAGGAUUGAGCAUCA
B3: 92119144_92120624_3555_CDS_ENSG00000127980_ENST00000248633|human|control|control (ssRNA)
RNA: GGGAGUUCUACAGUCCGACGAUCCUGUGAAAACAACUGGUCUUUCCCAGGAACUCCAGGCAAAUCCUGAGUCAUGGAGCUUGGUGCAGAGAGACAUUGUGAGCUCAAAUCAGAAGAGGUUCCAUUUCCAAGUUCUGAUUCAUACAACAGAGGAUUGAGCAUCA
B4: 2967938_2968058_2166_CDS_ENSG00000111206_ENST00000359843|human|control|control (ssRNA)
RNA: GGGAGUUCUACAGUCCGACGAUCUGUCAGAGAACGAUUGGCUGCAAGGCCAGAAACCUGUGGCUCCGGGGAGCCUGGCUUGGGGACGUCUAUAUCUGAGGGAGAAGAGUUGCCAAAGGGGACGGAGAUGAGGUCUAAGGGUUCCAACAGAGGAUUGAGCAUCA
B5: chr1:39494447:39494448:+_ENSG00000168653_ENST00000372967|hu_mus|hu_hu_hu_mus_False|28_58 (ssRNA)
RNA: GGGAGUUCUACAGUCCGACGAUCGCACCGAGCGGCGUUCUUAUAGGGCUGUUCUGCGCUUAGGAACAUAAAGUGCCGAUCUAUGUUGAUGCCCAGCUUUUUCUGUAUGUCCAAGAAAGGCAUGGCUCUGCAGUGCCCUUGUCACAACAGAGGAUUGAGCAUCA
B6: chr11:87793471:87793472:-_ENSMUSG00000020483_ENSMUST00000020775|mus_mus|mus_mus_mus_hu_False|78_108 (ssRNA)
RNA: GGGAGUUCUACAGUCCGACGAUCUGGGGGCUGGGGAAAAAGAAUAAGCUGGAUCCCCCCACCCCUUACAUUGUCAACCCUACACGAGAGUUUUGAAGGCGACUCAUGAAAAUCAGCAGCUCAAACGGCAAUGACCACCCCACCCAACAGAGGAUUGAGCAUCA
B7: chr2:47388980:47388981:-_ENSG00000143933_ENST00000272298|hu_mus|hu_hu_hu_mus_True|8_98 (ssRNA)
RNA: GGGAGUUCUACAGUCCGACGAUCUUCAUCUGUUAACUUCUCUCCAAGGUUUGUCAUCACAUGGCGAAGCUCUGCUGCACUAAUAUAGCCAUUGCCAUCCUUAUCAAACACACGGAAUGCUUCUCUAAUUUCUUCUUCACUGUCCAACAGAGGAUUGAGCAUCA
B8: chr3:9412954:9412955:+_ENSG00000134077_ENST00000452837|hu_mus|hu_hu_hu_mus_False|1_48 (ssRNA)
RNA: GGGAGUUCUACAGUCCGACGAUCGGUUGAUAUCUCUUCUUUGAUGGCUGGAUUUUCAUAAUAGUCCAAGAUAUGUGAAUCUGAAGUAUGGCUAGUGUGCUUUUUCUUACCAUCUUUCUCAUCUGCUUUGUCUCCUUGUCCAUUCAACAGAGGAUUGAGCAUCA
B9: chr10:102306293:102306294:+_ENSG00000166135_ENST00000299163|hu_mus|FALSE|FALSE (ssRNA)
RNA: GGGAGUUCUACAGUCCGACGAUCAGCCCCCUUAUACCAGAAGUUCACAGUGAUGGUAAUUCCCCCAUUUAGUAAUGACUCUAUAUGGUGCCACCAGUACAUUGGGAUGUAAAGAACAUCCCCAGGGCCAACCACUGUCUCAUACAACAGAGGAUUGAGCAUCA
B10: chr7:5008886:5008887:+_ENSMUSG00000035228_ENSMUST00000045543|mus_mus|FALSE|FALSE (ssRNA)
RNA: GGGAGUUCUACAGUCCGACGAUCCCCUUCAUCAUGGCCCAUCUCCGAACCCAAUGCCAUAAAUGGAGAAACAACCACCCCUAACUUCCAUUCUUGGGGUAGGGGGUCCAUCCUGCAAGCGUUCCCCUGUCCCAGCCGCCCAUUCAACAGAGGAUUGAGCAUCA
B11: chr5:33461064:33461065:+_ENSG00000113407_ENST00000502553|hu_mus|FALSE|FALSE (ssRNA)
RNA: GGGAGUUCUACAGUCCGACGAUCUGUGAGCCCGGUGAGAGCCCCCGAGAGCUCAUUCCUAUGCAGCACACCAAAGUCAGCUAGCCGCAGGGGCAGCUCUCGCCAGGACCGUGGCCGGUGAUCGAACAUCAGGCAGUGUCCCGGCAACAGAGGAUUGAGCAUCA
B12: 107879600_107879720_202_3pUTR_ENSG00000166266_ENST00000393094|human|control|control (ssRNA)
RNA: GGGAGUUCUACAGUCCGACGAUCGCACCCGCCGCGGCCACCUGCAACGAAUUUAGCUCGGCUUAGGCCCCGCAGCUCAGGUUCCGCGGCCACGUCACGUGACGCGAGGGCGGGGACGCGCUCGGGAGCGAGCGUGGGAGCCUGCAACAGAGGAUUGAGCAUCA
B13: chr11:116106860:116106861:-_ENSMUSG00000020780_ENSMUST00000021133|mus_mus|FALSE|FALSE (ssRNA)
RNA: GGGAGUUCUACAGUCCGACGAUCGAGGCACAGGGGACACAGAGACCCUGACUCUGGGCCCAGAAGAUGACAGGCUACAAAAGUAAGUCACAAACACACAAGAUGAACGGCCGCAGGGCUGAGGGUGCUGAGCUCUGCCCCAGCCAACAGAGGAUUGAGCAUCA
B14: chr1:10192443:10192444:+_ENSG00000130939_ENST00000377157|hu_mus|FALSE|FALSE (ssRNA)
RNA: GGGAGUUCUACAGUCCGACGAUCAAGGGCCGCCAUGUAGCUGAGAGCCGCUUCACGAGUUUCGCCAUUUAACAAAAUACUAUGUAGAAUCUUGAAAAGUUCUUGCCGUCCCAGCUCCAGGUAAUGCUGUAGUGACUGGCUGACCAACAGAGGAUUGAGCAUCA
B15: chr22:19452774:19452775:-_ENSG00000070010_ENST00000399523|hu_hu|hu_hu_hu_mus_False|28_98 (ssRNA)
RNA: GGGAGUUCUACAGUCCGACGAUCCUUCUCAUUGUAGUUGAUGGCAAUCACAUCUCCAGUCGUCAGACAGGCGAAGUUUCUCAAUGCAUUUUCUAAUACCGCUUUAGGGUUGGUGAUAUCCAGGAAGUCUGGGCUCUGAGGCUGCAACAGAGGAUUGAGCAUCA
B16: chr17:58740566:58740567:+_ENSG00000170836_ENST00000305921|hu_hu|motif|central (ssRNA)
RNA: GGGAGUUCUACAGUCCGACGAUCUUUUUGGUCCAUGACAGUGUUUGUUGAAUUAGUAGGCACAAGGCCAAUUGGAAGGCGGUUAUUCAAAGAAUCAUGUAUCCUUAAAGUCAGGGCUUUAGCGCAAUUUUCUUCAAGUGGUUCCAACAGAGGAUUGAGCAUCA
B17: chr12:39763582:39763583:-_ENSG00000139116_ENST00000544797|hu_mus|hu_hu_hu_mus_False|58_58 (ssRNA)
RNA: GGGAGUUCUACAGUCCGACGAUCCUCUAGGAACUGGGCAUUCACUUUGAAUUCAGGAGGGGGCAGCCCGUUUUUAAUUGCUAUGUGCUUUUUCUCAUCAAUACUCUUGAACAGGUGUCUAACAGCACGAGAGAUGAUGCCCUGCAACAGAGGAUUGAGCAUCA
B18: 88122427_88124480_1314_CDS_ENSMUSG00000001416_ENSMUST00000001452|mouse|control|control (ssRNA)
RNA: GGGAGUUCUACAGUCCGACGAUCCACAGCCAUCUCAGAGGCUCCACCACCAGGCACCAGCUGAGGGUCCAGUAGAACAUUGCGGCACACUUGCAUGGCAUCCUGGAGGUUGCGUUCUACUUCCGAGAGUAUCUCUUUGCUGGCCAACAGAGGAUUGAGCAUCA
B19: chr12:39756943:39756944:-_ENSG00000139116_ENST00000544797|hu_mus|hu_hu_hu_mus_False|1_68 (ssRNA)
RNA: GGGAGUUCUACAGUCCGACGAUCGGUUUGGCUGUUACCCCCAAGGGAAUCCUGCAAGAGUCUUGUCAGCUUGGAAUCUCUGUAAGGGACAUGGGUGGCUCUCUUGCUCUUGUCCCCCAAGGCGCUGAUUACAUUCCCAAGUGCCAACAGAGGAUUGAGCAUCA
B20: chr2:179515052:179515053:+_ENSMUSG00000000305_ENSMUST00000000314|mus_hu|mus_mus_mus_hu_False|18_98 (ssRNA)
RNA: GGGAGUUCUACAGUCCGACGAUCGCUGUCCCAUGCAGUGACGGUAAACGCCACCUGCUCGGAGGGGACCUGCAGCUCCCGGGUGGCGAAGACUGUCCCAUCUGCCCCAACUUUGAAGUCCAAGCUGUUGGUCUCAUAUUGUGUCAACAGAGGAUUGAGCAUCA
B21: chr13:42874254:42874255:+_ENSG00000023516_ENST00000025301|hu_mus|motif|central (ssRNA)
RNA: GGGAGUUCUACAGUCCGACGAUCUUCACUAGUAUCUGUUUGGCAAAACCAUUCAGCAGGAGUACAGCUUCCAGGAGGACGGAAAGCUGAGGUUCGAAUAGGGCUGAACAAGCCACUAUCCUCUGAUGUCAUCACCGGACGAGGCAACAGAGGAUUGAGCAUCA
B22: chr3:57569700:57569701:-_ENSG00000168374_ENST00000303436|hu_mus|FALSE|FALSE (ssRNA)
RNA: GGGAGUUCUACAGUCCGACGAUCCACAAAAAUGAGACCCUGGGUAUUCUGGAAGUAAUGCCUCCAGAGAGGCCUAAUUUUAUCUUGACCACCAACAUCCCAUACUGUGAAACAAAUGUUCUUAUAUUCUACUGUUUCCACAUUCAACAGAGGAUUGAGCAUCA

These binders were tested against T1, UNK ZnF1-3 (assay: nsRBNS (natural sequence RNA bind-n-seq); RBNS binding buffer (assumed for nsRBNS): 25 mM Tris pH 7.5, 150 mM KCl, 3 mM MgCl2, 0.01% Triton X-100, 500 ug/ml BSA, 20 U/ml SUPERase-In, 4 C; UNK is unkempt and MSI1 is Musashi-1; names of the RNAs are library labels; protein concentration not given here; high values mean tight binding).

Binder | binding signal [enrichment R]
B1 | 0.913
B2 | 1.13
B3 | 1.06
B4 | 1.55
B5 | 0.648
B6 | 1.41
B7 | 0.764
B8 | 0.32
B9 | 1.78
B10 | 1.3
B11 | 1.26
B12 | 1.14
B13 | 1.3
B14 | 1.5
B15 | 0.766
B16 | 1.16
B17 | 1.7
B18 | 1.33
B19 | 0.542
B20 | 0.888
B21 | 1.18
B22 | 1.21
